# Several values for one entry are separate records, joined by “and”; a condition that tells them apart may be missing. Equal entries are not always repeated. The shares of active, inactive and inconclusive entries below differ from those in the screen. A potency beside an inconclusive call is a rough fit, not a confirmed value. Activity calls are given as the source filed them. Calls follow the shape of the dose curve; as a rule, active = well fitted cell-killing curve with a large enough effect; inconclusive = small, poorly fitted or top-dose-only effect, or effect the other way; inactive = flat fitted curve, though single readings scatter. Non-standard residues stand in square brackets, D forms with d. Residues, ends and D or L forms follow the SMILES beside them. *: point of attachment. Dolaproine = CO[C@@H]([C@@H]1CCCN1)[C@@H](C)C(=O)O; Dil = CC[C@H](C)[C@H](NC)[C@@H](CC(=O)O)OC; Doe = c1ccc(C[C@H](N*)c2nccs2)cc1; Aib = CC(C)(N)C(=O)O
# System: Tov112D
# Experiment: Primary qHTS to identify gynecologic anti-cancer compounds using libraries of approved drugs and bioactive compounds (AID 1345084); also: nearly all actives have a fitted effect of over 55% in size
# Settings: Gynecologic cancer cell panel viability, ATPlite luminescence, 48 h; series mostly up to 57.5 µM
# Summary of the method: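 48 h compound exposure at 37 C, 5% CO2; five-point qHTS. ATPlite luminescence readout of cell ATP.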
# Potency is read from the fitted curve at half-maximal effect; tags tell the direction and shape of the fitted curve.
row,SMILES,Potency
1,C[C@]12CC[C@H](O[C@@H]3O[C@H](CO)[C@@H](O)[C@H](O)[C@H]3O[C@@H]3O[C@H](CO)[C@@H](O)[C@H](O)[C@H]3O)CC1=CC[C@@H]1[C@@H]2CC[C@]2(C)[C@@H](C3=CC(=O)OC3)CC[C@]12O,"inconclusive: 3.98 µM [cytotoxic, partial curve, poor fit]"
2,CC[C@H](C)[C@@H]([C@@H](CC(=O)N1CCC[C@H]1[C@H](OC)[C@@H](C)C(=O)N[C@@H](Cc1ccccc1)c1nccs1)OC)N(C)C(=O)[C@@H](NC(=O)C(C)(C)N)C(C)C (H-[Aib]V[Dil][Dolaproine]-Doe),inconclusive: 100 µM
3,CC[C@@]1(O)C(=O)OCc2c1cc1n(c2=O)Cc2cc3c(OC)cccc3nc2-1,active: 0.224 µM
4,C[C@@H]1C[C@@H](O)[C@]2(O)O[C@@H]3C[C@@]4(C=O)C(CC[C@@H]5C4CC[C@]4(C)[C@@](O)(C6=CC(=O)OC6)CC[C@]54O)C[C@H]3OC2O1 (some centres undefined),active: 0.891 µM
5,C[C@@H]1CCC/C=C/[C@H]2C[C@@H](O)C[C@@H]2[C@@H](O)/C=C/C(=O)O1,active: 1 µM
6,C/C=C(\C)C(=O)O[C@H]1CC2C(=C1C)[C@H]1OC(=O)[C@](C)(O)[C@]1(O)[C@H](OC(=O)CCC)C[C@@]2(C)OC(C)=O (some centres undefined),active: 5.01 µM
7,COC1CC(O[C@H]2CC[C@@]3(C)C(CCC4C3CC[C@]3(C)[C@@H](C5=CC(=O)OC5)CC[C@]43O)C2)OC(C)C1O (some centres undefined),inconclusive: 0.01 µM
8,Cc1ccc([N+](=O)[O-])[c]2c1[O][Hg]2,active: 5.62 µM
9,COC1C(O)C(C)OC(OC2C(CO)O[C@@H](O[C@@H]3CC4CCC5C(CC[C@]6(C)[C@@H](C7=CC(=O)OC7)CC[C@]56O)[C@@]4(C)[C@H](O)C3)C(O)C2O)C1O (some centres undefined),active: 0.501 µM
10,C[C@H]1O[C@@H](O[C@H]2[C@@H](O)C[C@H](O[C@H]3[C@@H](O)C[C@H](O[C@H]4CC[C@@]5(C)[C@H](CC[C@@H]6[C@@H]5CC[C@]5(C)[C@@H](C7=CC(=O)OC7)CC[C@]65O)C4)O[C@@H]3C)O[C@@H]2C)C[C@H](O)[C@@H]1O,inconclusive: 7.1 nM and active: 89.1 nM
11,COC1C(O)C(OC2CCC3(C=O)C(CCC4C3CCC3(C)C(C5=CC(=O)OC5)CCC43O)C2)OC(C)C1OC1OC(CO)C(O)C(O)C1O (centres undefined),active: 0.316 µM
12,COc1cc(CC(C)N)cc(OC)c1OC (centres undefined),"inconclusive: 0.891 µM [cytotoxic, full curve]"
13,C/C=C(/C)C(=O)O[C@H]1[C@@H]2[C@H](C)C(=O)O[C@@H]2C[C@@H](C)[C@@H]2C=CC(=O)[C@]21C,"inconclusive: 12.6 µM [cytotoxic, single point]"
14,CC1=CC(=O)[C@@H](O)[C@@]2(C)C1C[C@H]1OC(=O)[C@H](O)[C@@]3(O)[C@@H](C)[C@@H](O)[C@H](O)C2[C@@]13C (some centres undefined),"inconclusive: 5.62 µM [cytotoxic, full curve]"
15,C[C@@H]1Cc2c(Cl)cc(C(=O)N[C@@H](Cc3ccccc3)C(=O)O)c(O)c2C(=O)O1,"inconclusive: 28.2 µM [cytotoxic, single point]"
16,CN(C(=O)CN1C(=O)COc2cc(Cl)c(Cl)cc21)[C@@H](CN1CCCC1)c1ccc(-c2cccc(C(N)=O)c2)cc1,"inconclusive: 25.1 µM [cytotoxic, single point]"
17,CO[C@@H]1[C@H](O)[C@@H](O[C@@H]2C[C@H]3CC[C@@H]4C(CC[C@]5(C)[C@@H](C6=CC(=O)OC6)CC[C@]45O)[C@@]3(C)[C@H](O)C2)O[C@H](C)[C@@H]1O (some centres undefined),active: 0.0891 µM
18,COc1cccc2c1C(=O)c1c(O)c3c(c(O)c1C2=O)C[C@@](O)(C(=O)CO)CC3OC1CC(N2CCOC(OC)C2)C(O)C(C)O1 (some centres undefined),active: 0.1 µM
19,C[C@]12CCC(=O)C=C1CC[C@@H]1[C@H]3CC[C@](C)(O)[C@@]3(C)CC[C@@H]12,"inconclusive: 28.2 µM [cytotoxic, single point]"
20,CC[C@H](C)[C@H](NC(=O)[C@H]1CCCCN1C)C(=O)N(COC(=O)CC(C)C)[C@H](C[C@@H](OC(C)=O)c1nc(C(=O)N[C@@H](Cc2ccc(O)cc2)C[C@H](C)C(=O)O)cs1)C(C)C,active: 0.0041 µM
21,CCOC(=O)c1ncn2c1CN(C)C(=O)c1c(I)cccc1-2,inactive
22,CC[n+]1c(-c2ccccc2)c2cc(N)ccc2c2ccc(N)cc21,active: 1.41 µM
23,COC1C(O)C(C)OC(OC2C(CO)O[C@@H](O[C@@H]3CC4CCC5C(CC[C@]6(C)[C@@H](C7=CC(=O)OC7)CC[C@]56O)[C@@]4(C)[C@H](OC(C)=O)C3)C(O)C2O)C1O (some centres undefined),active: 2.82 µM
24,COC1CC(O[C@H]2CC[C@]3(C)C4CC[C@]5(C)[C@@H](C6=CC(=O)OC6)[C@@H](OC(C)=O)C[C@]5(O)C4CC[C@@H]3C2)OC(C)C1O[C@@H]1O[C@H](CO)[C@@H](O)[C@H](O)[C@H]1O (some centres undefined),active: 0.355 µM
25,CC1=C[C@H]2O[C@@H]3[C@H](O)[C@@H](O)[C@](C)([C@@]2(CO)C[C@@H]1O)[C@]31CO1,"inconclusive: 20 µM [cytotoxic, partial curve, poor fit]"
26,CC[C@@H]1C[C@H]2CC[C@H](O2)[C@H](C)C(=O)O[C@@H](C)C[C@@H]2CC[C@@H](O2)[C@@H](C)C(=O)O[C@H](CC)C[C@H]2CC[C@H](O2)[C@H](C)C(=O)O[C@@H](C)C[C@@H]2CC[C@@H](O2)[C@@H](C)C(=O)O1,active: 0.562 µM
27,CO[C@H]1[C@H](O)[C@H](O[C@H]2CC[C@]3(C)C4CC[C@]5(C)[C@H](C6=CC(=O)OC6)CC[C@]5(O)C4CC[C@@H]3C2)O[C@@H](C)[C@@H]1O (some centres undefined),inconclusive: 0.01 µM
28,O=C1CN=C(c2cccc(Br)c2)c2oc3ccccc3c2N1,"inconclusive: 25.1 µM [cytotoxic, single point]"
29,C=C(C)[C@@]12O[C@@H]1[C@@]1(C)C(=CC2=O)CC[C@@H](OC(C)=O)[C@@H]1C,"inconclusive: 11.2 µM [cytotoxic, partial curve, poor fit]"
